{
  "source": "ChEMBL document CHEMBL4888484",
  "about": "“Replenishing the malaria drug discovery pipeline: Screening and hit evaluation of the MMV Hit Generation Library 1 (HGL1) against asexual blood stage Plasmodium falciparum ,using a nano luciferase reporter read-out” (2022)",
  "note": "The whole screen tested about 150,000 compounds, of which about 540 (0.36%) showed an effect of 50% or more. Some of the results follow.",
  "data": [
    {"test_system": "Plasmodium falciparum", "assay": "Primary screen in NF54 nanoGlo assay, in single point, at 2uM, 72h; a lower Z score goes with more inhibition", "assay_type": "functional, Erythrocyte", "settings": "timepoint 72 hour", "units": {"% Inhibition": "%"}, "values": [
      {"compound": "COCc1cccc(C(=O)NCC(=O)NC(C)C)n1", "% Inhibition": -11, "Z score": 1.41},
      {"compound": "Clc1cnc(COc2ccncc2)s1", "% Inhibition": -10, "Z score": 1.05},
      {"compound": "CC(C)c1nccn1CC(=O)N1CCc2ncccc21", "% Inhibition": 3, "Z score": -0.52},
      {"compound": "CC(NC(=O)C1CC1c1ccc(F)c(F)c1)c1ncon1", "note": "(stereo not given)", "% Inhibition": -10, "Z score": 0.87},
      {"compound": "CC(=O)N[C@](C)(C(=O)OCC(C)C)C1CC1", "% Inhibition": 7, "Z score": -1.4},
      {"compound": "CCc1noc(CCNC(=O)C(C)(C)N2CCCC2)n1", "% Inhibition": 1, "Z score": -0.29},
      {"compound": "COc1ccc(OC)c(S(=O)(=O)N2CCC[C@@H]2CCc2noc(C)n2)c1", "% Inhibition": -3, "Z score": 0.51},
      {"compound": "Cc1nc(C)c(CC(=O)N(Cc2ccccn2)C[C@@H]2CCC(=O)N2)s1", "% Inhibition": -16, "Z score": 1.4},
      {"compound": "Cn1cc(S(=O)(=O)NC(=O)c2sccc2OC(F)F)cn1", "% Inhibition": 3, "Z score": -0.56},
      {"compound": "O=C(Cc1ccsc1)NC1(c2ccccc2)CCOCC1", "% Inhibition": 2, "Z score": -0.29},
      {"compound": "COc1ccc(OC)c(S(=O)(=O)N2CCC3(CCN(C)CC3)C2)c1", "% Inhibition": -5, "Z score": 0.9},
      {"compound": "CC(=O)NC[C@H]1CCCN(C(=O)c2cnn(C3CCCC3)c2C)C1", "% Inhibition": 0, "Z score": 0},
      {"compound": "COC[C@]1(O)CCOC2(CCN(C(=O)c3ccc4cc[nH]c4c3)CC2)C1", "% Inhibition": -18, "Z score": 2.65},
      {"compound": "O=C([C@H]1CCc2nncn2C1)N1CCC(F)(F)C1", "% Inhibition": -3, "Z score": 0.62},
      {"compound": "Cc1cc(Br)cc(N[C@H](c2cccnc2)c2ncc[nH]2)c1", "% Inhibition": 33, "Z score": -7.24},
      {"compound": "Cc1cc(C(=O)N2CCC[C@](C)(C#N)C2)nc(C)n1", "% Inhibition": 0, "Z score": 0.01},
      {"compound": "COCCCN(C)C(=O)CNC(=O)COc1ccccc1", "% Inhibition": -5, "Z score": 0.69},
      {"compound": "C/C=C(\\C)CN(C)CCCc1c(C)n[nH]c1C", "% Inhibition": -11, "Z score": 1.02},
      {"compound": "Cc1c(NC(=O)C(F)(F)C(F)(F)C(F)(F)F)cc(NC(=O)C(F)(F)C(F)(F)C(F)(F)F)cc1NC(=O)C(F)(F)C(F)(F)C(F)(F)F", "% Inhibition": -7, "Z score": 1.1},
      {"compound": "CC(C)Cc1cc(Cn2cnc(-c3ccccc3)c2[C@H]2CCOC2)no1", "% Inhibition": 5, "Z score": -0.81},
      {"compound": "O=C(N1CCCC1)N1CCN(c2noc(C3CC3)n2)C[C@@H](O)C1", "% Inhibition": 14, "Z score": -1.86},
      {"compound": "Cc1c(NCc2csc(C3CCCC3)n2)cccc1C(=O)N1CCOCC1", "% Inhibition": -9, "Z score": 1.04},
      {"compound": "COc1ccc(N2C[C@@H](C(=O)N(CCc3ccccc3)Cc3ccccc3)CC2=O)cc1", "% Inhibition": -4, "Z score": 0.37},
      {"compound": "c1cnn(C2CCCCC2NCc2ccon2)c1", "note": "(stereo not given)", "% Inhibition": -6, "Z score": 0.81},
      {"compound": "CC(=O)NCCNC(=O)c1cc(NCc2cccc(C)c2)cc(S(=O)(=O)Nc2ccccc2C)c1", "% Inhibition": -1, "Z score": 0.16},
      {"compound": "O=C(Nc1nnc(-c2ccsc2)o1)c1cc(-c2ccccc2)on1", "% Inhibition": -2, "Z score": 0.35},
      {"compound": "CCCOc1ccc(CNCCCN(C)C)cc1OCC", "% Inhibition": 1, "Z score": -0.08},
      {"compound": "Cc1ccc(NC(=O)Cn2nc3c(N4CCOCC4)nccn3c2=O)cc1F", "% Inhibition": -3, "Z score": 0.43},
      {"compound": "Cc1ccc(NC(=O)N2CCN(c3cnnc(N(C)C)c3)CC2)c(Cl)c1", "% Inhibition": 0, "Z score": 0.04},
      {"compound": "CC1(C)CCC[C@H](CNC(=O)c2cnc(O)cc2C(F)(F)F)O1", "% Inhibition": -4, "Z score": 0.89},
      {"compound": "CCCNC(=O)CN1CCC2(O)CCCCC2[C@@H]1c1cc(OC)ccc1OC", "note": "(stereo not given in full)", "% Inhibition": 2, "Z score": -0.2},
      {"compound": "CN(CCCO)S(=O)(=O)c1c(F)cccc1OC(F)(F)F", "% Inhibition": 1, "Z score": -0.13},
      {"compound": "Fc1cccc(Cl)c1CNc1ccc(Nc2ccccc2)cc1", "% Inhibition": -5, "Z score": 0.57},
      {"compound": "CCC(CC)(CO)CN(C)C(=O)c1cc(F)cc(C#N)c1", "% Inhibition": -5, "Z score": 1},
      {"compound": "CC(C)OCCC(=O)N1CCN(CC(C)(C)O)CC1", "% Inhibition": 0, "Z score": 0.04},
      {"compound": "CN(CCC1(O)CCCC1)C(=O)[C@@H]1CCCCCN1C", "% Inhibition": -8, "Z score": 1.36},
      {"compound": "COCCCN1CC[C@H](CNC(=O)c2ccc(-c3cccc(C)n3)cc2)C1", "% Inhibition": -9, "Z score": 1.21},
      {"compound": "COc1ccc2cc(COC(=O)CN3C(=O)c4ccccc4C3=O)ccc2c1", "% Inhibition": 2, "Z score": -0.21},
      {"compound": "CO[C@@](C)(CNS(C)(=O)=O)c1cccc(Cl)c1", "% Inhibition": -15, "Z score": 3.08},
      {"compound": "Cc1ocnc1C(=O)N1CC[C@@]2(CCCN(Cc3ccc(F)c(F)c3)C2=O)C1", "% Inhibition": -7, "Z score": 1.28},
      {"compound": "CC(C)n1cnnc1CNC(=O)[C@H](C)n1nnnc1C(C)(C)C", "% Inhibition": -7, "Z score": 0.72},
      {"compound": "Cc1nc(CN(Cc2ccc(F)cc2)[C@H]2CCN(C)C2)oc1C", "% Inhibition": 5, "Z score": -0.92},
      {"compound": "Cc1ccc2ncc(CN3CCC[C@H](CNC(=O)Nc4cccc(F)c4)C3)n2c1", "% Inhibition": -13, "Z score": 2.28},
      {"compound": "COc1ccc(CNCc2cccnc2Oc2ccccc2)cc1", "% Inhibition": 3, "Z score": -0.37},
      {"compound": "CCOC(=O)[C@H]1CCCN(Cc2cn3cccnc3n2)C1", "% Inhibition": 4, "Z score": -0.49},
      {"compound": "N#Cc1cccnc1NCCNCc1ccc2c(c1)CCO2", "% Inhibition": -3, "Z score": 0.3},
      {"compound": "Cc1ccc(NC(=O)c2coc(CN3CCN(CC(C)(C)O)CC3)n2)cc1C", "% Inhibition": 3, "Z score": -0.32},
      {"compound": "C[C@@]1(C(=O)N2CCC3(CCC(=O)N(CCc4c[nH]cn4)C3)CC2)CCCO1", "% Inhibition": -8, "Z score": 0.82},
      {"compound": "Cc1ccc(Cl)cc1N1CCN(C(=O)c2cc3n(n2)C[C@@H](O)CNC3=O)CC1", "% Inhibition": -13, "Z score": 1.21},
      {"compound": "COc1ccc(OCC(=O)N2CCC3(CC2)Nc2cccnc2N=C3NC(C)(C)C)cc1", "% Inhibition": 35, "Z score": -3.97},
      {"compound": "CCC[C@H](NC(=O)c1c(Cl)c(C)nn1C)C(=O)NC", "% Inhibition": -18, "Z score": 1.9},
      {"compound": "COCc1ccccc1S(=O)(=O)N(C)c1ccc2ccccc2n1", "% Inhibition": -1, "Z score": 0.1},
      {"compound": "CCn1nc(C)c(CN2CCOc3ccc(C4(O)CCN(C)CC4)cc3C2)c1C", "% Inhibition": -12, "Z score": 2},
      {"compound": "Cc1ccsc1CN(C)[C@@H](C)C(=O)NC(N)=O", "% Inhibition": -14, "Z score": 2.01},
      {"compound": "COc1ncccc1C(=O)N1CCc2c(cnc3cc(C)nn23)C1", "% Inhibition": -1, "Z score": 0.19}
    ]}
  ]
}
